Results as given in PubChem BioAssay AID540267 (National Center for Advancing Translational Sciences (NCATS), 2011).
“And” between values parts separate entries of the source, which are not always exact repeats. Equal values may be shown once. In all, about 340,000 compounds went through this assay and about 530 (0.16%) were called active. Inconclusive results, whose numbers are uncertain, are shown with a selection of clear calls. Rule as the data show it: active = activity change below about -80%; inconclusive = between about -30% and that limit; inactive = weaker than that.

Test: Small Molecules that selectively kill Giardia lamblia: qHTS;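 also: parasites exposed to compound for two days anaerobically before the ATP read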
Conditions: Giardia lamblia trophozoite viability; at 7.66 µM; hits give low values
Outline: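 Compounds were tested on trophozoites seeded at 100 cells/well and held 48 hrs at 37 deg C anaerobically. An ATP-based luminescent kit measured the remaining live cells.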
% is scaled to controls: 0 for no effect and ±100 for the full control effect.

Row | SMILES | activity change
1 | COc1ccc(-c2csc(NC(=S)NC(=O)/C=C/c3ccc(C(C)C)cc3)n2)cc1OC | inconclusive: -34.3% [inhibitor]
2 | COc1ccccc1/C=C/C(=O)OCC(=O)Nc1ccc(Cl)cn1 | inconclusive: -32.5% [inhibitor]
3 | O=C1CC2(CCCCCC2)Oc2ccc(Cl)cc21 | inconclusive: -31.6% [inhibitor]
4 | Cc1noc(C)c1C(=O)Nc1nc2ccc(S(C)(=O)=O)cc2s1 | inconclusive: -39.2% [inhibitor]
5 | Cc1nc2ccccn2c1C(=O)N/N=C/c1ccc([N+](=O)[O-])o1 | active: -86.1%
6 | Cc1c(NC(=O)C(C)OC(=O)C23CC4CC(CC(Br)(C4)C2)C3)c(=O)n(-c2ccccc2)n1C (stereo not given) | inconclusive: -31.3% [inhibitor]
7 | CCC(C)Sc1ccc(-c2nc3ccc(C)cn3c2NC2CCCCC2)cc1 (stereo not given) | inactive: -11.7%
8 | NC(=O)c1ccccc1N/C=C/C(=O)c1ccc(Cl)cc1Cl | inconclusive: -60.9% [inhibitor]
9 | CCc1cc2c(NCC3CCCO3)nc(C)nc2s1 (stereo not given) | inactive: -17.3%
10 | COc1ccc(Cc2nnc(SCC(=O)NCC3CCCO3)o2)cc1 (stereo not given) | inactive: 2.21%
11 | CCCc1nc2oc3c(NCC(C)O)ncnc3c2c2c1CCCC2 (stereo not given) | inactive: 24.7%
12 | c1ccc(-c2nnc(CN3CCCc4ccccc43)o2)cc1 | inactive: 25.9%
13 | Cn1cc(C(=O)N/N=C/C2=C(N3CCOCC3)C(=C/c3ccc([N+](=O)[O-])cc3)/CC2)ccc1=O | inactive: 11.9%
14 | O=C(CCCn1cnc([N+](=O)[O-])n1)Nc1ccc(Cl)cc1Cl | inconclusive: -42.9% [inhibitor]
15 | Cc1ccc(C)c(NC(=S)NNC(=O)c2csc(C)c2)c1 | inconclusive: -34.1% [inhibitor]
16 | CC1CCN(C(=O)c2ccc([N+](=O)[O-])o2)CC1 | inconclusive: -68.9% [inhibitor]
17 | O=[N+]([O-])c1ccc(COc2ccc(CN3CCCC3)cc2)cc1 | inactive: -5.73%
18 | COc1ccc(C2CC(c3ccccc3)Oc3ccc(OC)cc32)cc1 (stereo not given) | inactive: -4.24% and inactive: -9.55%
19 | COCCCNCC(O)COc1cccc2[nH]c(C)cc12 (stereo not given) | inconclusive: -33.3% [inhibitor]
20 | Cc1coc(C)c1C(=O)CC1(O)C(=O)N(Cc2ccccc2)c2ccccc21 (stereo not given) | inactive: 8.76%
21 | Cc1nc([N+](=O)[O-])cn1CC(=O)c1ccc(F)cc1 | inconclusive: -32.2% [inhibitor]
22 | O=C(c1ccc(-c2cccc(Cl)c2Cl)o1)N1CCOCC1 | inconclusive: -30.3% [inhibitor]
23 | CCOc1ccc(CNC(=O)C2Cc3cc(S(=O)(=O)N4CCCCC4)ccc3N2C(C)=O)cc1 (stereo not given) | inconclusive: -31.2% [inhibitor]
24 | CS(=O)(=O)N1c2ccccc2[C@]2(Br)C[C@H]3C(=O)N[C@@H](Cc4ccccc4)C(=O)N3[C@H]12 | inactive: 19.8%
25 | O=C1/C(=C/c2ccc(O)c([N+](=O)[O-])c2)SC(=S)N1Cc1ccccc1 | inconclusive: -70.3% [inhibitor]

Row | SMILES | activity change
26 | Cc1cc(-c2ccc(C)c(S(=O)(=O)NCc3cccc(Br)c3)c2)on1 | inconclusive: -32.1% [inhibitor]
27 | NC(=O)C(OC(=O)CNC(=O)C1CCCCC1)c1ccccc1 (stereo not given) | inactive: 9.02%
28 | COc1ccc(NS(=O)(=O)c2ccc3oc(=S)[nH]c3c2)cc1 | inconclusive: -30.8% [inhibitor]
29 | Cc1ccc(S(=O)(=O)N2CCC(=O)N(C(CO)C(C)C)CC2)cc1 (stereo not given) | inconclusive: -33.5% [inhibitor]
30 | Cc1cc(C(=O)COc2cccnc2[N+](=O)[O-])c(C)n1-c1ccccc1F | inconclusive: -79.2% [inhibitor]
31 | O=C(Nc1nnc(C2CC2)o1)c1ccc(S(=O)(=O)N2CCCc3ccccc32)cc1 | inconclusive: -34.7% [inhibitor]
32 | Cc1ccccc1COc1ccc(-c2nnn(CC(=O)O)n2)cc1 | inactive: -25.9%
33 | OC(C#CCN1CCCCC1)(c1ccccc1)c1ccccc1 | inactive: 17.6%
34 | COc1ccc(NS(=O)(=O)c2cc(NC(=O)c3ccc(Cl)cc3)ccc2N2CCOCC2)cc1 | inactive: 12%
35 | CCc1noc(C)c1C(=O)NNC(=O)c1ccccc1F | inconclusive: -35.5% [inhibitor]
36 | CN(CC(=O)NNC(=O)Cc1ccccc1F)S(=O)(=O)c1ccc(Cl)cc1 | inactive: -2.57%
37 | COc1ccccc1N1CCN(Cc2ccc(C(=O)O)cc2)CC1 | inactive: 7.08%
38 | CC(C)(C)c1ccc(C(=O)NCC(=O)N2CCC3(CC2)NCCc2[nH]cnc23)cc1 | inactive: 1.11%
39 | NC(=O)c1nn2c(C(F)(F)F)cc(-c3ccccc3)nc2c1Br | inconclusive: -31.2% [inhibitor]
40 | O=C(NCC(c1ccco1)N1CCN(c2ccc(F)cc2)CC1)C1CCCCC1 (stereo not given) | inactive: 15.4%
41 | Cc1ccc(N(C(=O)c2csnn2)C(C(=O)NC2CCCC2)c2cccnc2)c(C)c1 (stereo not given) | inactive: 10.1%
42 | CCc1cccc2sc(N3CCN(C(=O)c4ccc([N+](=O)[O-])o4)CC3)nc12 | inconclusive: -46.3% [inhibitor]
43 | COc1cc(C)ccc1OCc1cc(C(=O)NCc2ccncc2)no1 | inconclusive: -30.5% [inhibitor]
44 | CC(C)N1CCc2c(sc(NC(=O)c3cc4cc([N+](=O)[O-])ccc4s3)c2C(N)=O)C1 | inconclusive: -50.6% [inhibitor]
45 | COc1ccc(-c2cc(C(=O)c3c(N)n(C)c(=O)n(C)c3=O)c3ccccc3n2)cc1 | inconclusive: -42.9% [inhibitor]
46 | Cc1cccc2sc(NNC(=O)c3ccc(S(=O)(=O)N4CCc5ccccc5C4)cc3)nc12 | inactive: 12.3%
47 | COC(=O)Nc1ccc(S(=O)(=O)N2CCC(C(=O)NCc3ccc4c(c3)OCO4)CC2)cc1 | inactive: -1.28%
48 | Clc1cccc(Cl)c1/C=C/c1nc2ccccc2[nH]1 | inconclusive: -39.9% [inhibitor]
49 | CCc1nn(CCCC(=O)NCc2cc(Br)ccc2OC)c(=O)c2cc3occc3n12 | inactive: -14.8%
50 | COC(=O)N/N=C/c1ccc([N+](=O)[O-])o1 | inconclusive: -67.4% [inhibitor]
